These are yes or no findings as the source states them, for the method shown. Some results given as binding are weak or reduced against the parent protein; the word gives no strength. One block for each binder: values may come before it.
What was measured:
[1] = target: T1, Stn1 (S. pombe (fission yeast)) (UniProt Q0E7J7); experiment: two-hybrid; as a1, but with Ten1 co-expressed alongside the GBD-Stn1 fusion protein; GBD and GAD plasmids in budding yeast PJ69-4A; growth on Sc-TRP-LEU-HIS and Sc-TRP-LEU-HIS-ADE; 30°C, 2 days
T1 sequence: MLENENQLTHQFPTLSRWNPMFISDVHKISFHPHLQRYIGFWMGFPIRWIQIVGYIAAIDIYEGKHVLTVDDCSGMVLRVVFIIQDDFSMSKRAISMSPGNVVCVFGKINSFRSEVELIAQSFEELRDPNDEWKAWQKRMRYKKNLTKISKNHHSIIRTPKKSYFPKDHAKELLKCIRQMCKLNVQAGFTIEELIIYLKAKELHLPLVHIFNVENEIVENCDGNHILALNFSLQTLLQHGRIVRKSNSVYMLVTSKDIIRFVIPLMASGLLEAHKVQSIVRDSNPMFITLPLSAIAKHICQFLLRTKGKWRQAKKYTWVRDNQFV

[2] = target: T1, Stn1 (S. pombe (fission yeast)); experiment: two-hybrid; Gal4 DNA binding domain (GBD) and Gal4 activating domain (GAD) plasmids co-transformed in budding yeast PJ69-4A; fivefold dilutions spotted on Sc-TRP-LEU-HIS and Sc-TRP-LEU-HIS-ADE; 30°C, 2 days; without co-expressed Ten1
[3] = target: T2, Ten1 (S. pombe (fission yeast)) (UniProt P0C5Y7); experiment: as above
T2 sequence: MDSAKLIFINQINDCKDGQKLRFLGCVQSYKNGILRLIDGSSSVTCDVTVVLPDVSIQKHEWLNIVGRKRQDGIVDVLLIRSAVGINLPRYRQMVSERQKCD

binding [1]: binds
binding [2]: binds weakly
binding [3]: no binding
B1: Tpz1 (protein, UniProt O14246 1-508)
chain: MSNCLKHPWLENGLLNLIKNADVLPIRVFKCQPLQIFEYIRYEHPIRCKLSDTEFYIEAEFSSQSISDLNNFTEKRITSLRGGIVTLGNFLIHLIPSQSGIIPWIQVESFNFQGCEGAVFGNPKAITTSALFNALLQSPYLAALANEFNRSIKEGSSYQEASLSQQEKPNDNTSNSRDIKNNIQFHWKNMTSLSIEECIIPKGQQLILEKESEENTTHGIYLEERKMAQGLHNSVSETPEVKQEDNDEDLDAYSWSSSTDSAGEIPSLPTNRKILEKIAEKPPPFESPLEDDETPDQTNEHEANQVNVSQLPLNPRGSGISGRPVESTEQLNSSLTIERSQSIQSTDSKQRVETQSHRRSKIEIFDAQDELFDRSICTTIDDSTGKLLNAEETPIKTGDLHSTSASSVISCTPPAINFTSDICNEQIELEYKRKPIPDYDFMKGLETTLQELYVEHQSKKRRLELFQLTNNHQKNSEACEMCRLGLPHGSFFELLRDWKKIEEFRNKS

binding [1]: binds
binding [2]: binds
binding [3]: no binding
B2: SUMO (Pmt3) (protein, UniProt O13351 1-117)
chain: MSESPSANISDADKSAITPTTGDTSQQDVKPSTEHINLKVVGQDNNEVFFKIKKTTEFSKLMKIYCARQGKSMNSLRFLVDGERIRPDQTPAELDMEDGDQIEAVLEQLGGCTHLCL

binding [1]: binds
binding [2]: binds weakly
B3: Tpz1 243–420 (domain or fragment, UniProt O14246 243-420)
chain: QEDNDEDLDAYSWSSSTDSAGEIPSLPTNRKILEKIAEKPPPFESPLEDDETPDQTNEHEANQVNVSQLPLNPRGSGISGRPVESTEQLNSSLTIERSQSIQSTDSKQRVETQSHRRSKIEIFDAQDELFDRSICTTIDDSTGKLLNAEETPIKTGDLHSTSASSVISCTPPAINFTS
